± gives the standard deviation of the averaged measurements. Some of the results follow.
The sequences below were run on PfAP2-I AP2 domain 3 (GST-tagged) (assay: gcPBM binding intensity (ln(normalized median fluorescence intensity)); higher = stronger DNA binding).
Method in brief: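 For binding intensity, the highest Masliner-normalised natural-log median intensity across replicate spots of either probe orientation was taken. Protein bound to the array was stained with Alexa488 anti-GST antibody and scanned at 488 nm. The protein, GST-tagged P. falciparum DNA-binding domains from E. coli at about 25 μg on average, had been applied for 1 h to an Agilent 4 × 180k array of primer-extended double-stranded 36-bp intergenic genomic probes and negative controls.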

| Sequence | gcPBM binding intensity (ln) |
| --- | --- |
| TAAAAAATTATATTCACACACATACACATATATATA [CACACA_site545] | 7.92 ± 0.76 |
| ATATTAAATATATACAGTACACATTACAATACAATA [XGTACX_site3221] | 7.84 ± 0.47 |
| CTTTGTAGTTGGTCCACACACATATCTGGAAGAATA [CACACA_site4834] | 8.01 ± 0.39 |
| TTTCTTAAACCGTACAGTACACACCTTTATAATGTT [XGTACX_site434] | 8.23 ± 0.38 |
| TAAGCGTTTTTTAAAACACACATAAGAACTAAATGA [CACACA_site1670] | 7.62 ± 0.76 |
| TATTTTCCATGAGGTAGTACACATTAAAAAATCGTT [XGTACX_site6887] | 7.87 ± 0.62 |
| AAGGTTTTGGGTTTTAATTAATTTAATATGATTATA [XGTACX_negctrl_site147] | 7.76 ± 0.59 |
| TAATATTAAAAAGAGACACACAAAAATATTAAAAAA [CACACA_site3120] | 7.76 ± 0.88 |
| TTACACCTTAGGATCTGTACAAATATATGACAAATC [XGTACX_site4333] | 7.59 ± 0.56 |
| TTTCAACTTTTGTCATGTACACATAATTTTATTGCA [XGTACX_site6701] | 8.24 ± 0.51 |
| ATTTATTTATCAAATATTATCTTAAAAAAAAAAGAA [CACACA_negctrl_site1345] | 7.47 ± 0.54 |
| AACAAAAGAAAAAAATATATATATTCGTCCTATTTT [CACACA_negctrl_site444] | 7.47 ± 0.55 |
| CATCTGGTATCTAATAGTACATATATATAATATCTT [XGTACX_site2774] | 7.75 ± 0.52 |
| TTAAAAAATATATACGTTGATATAATACAACTTGAC [CACACA_negctrl_site1551] | 7.54 ± 0.52 |
| ATGTGTATATGTTAATGTACAAATTTTGAAAATGCC [XGTACX_site2685] | 8.14 ± 0.5 |
| TGTATAACCATAAATTGTACAGAAAAAAGTATAAAA [XGTACX_site1493] | 7.84 ± 0.67 |
| TATATATGCATTAAAGTGTTTTTTTTTTTTTTTTTT [CACACA_negctrl_site1353] | 9.12 ± 0.33 |
| ATTTTTTTTTTTTATGGTACACACACGCGTATGGTT [XGTACX_site3888] | 8.04 ± 0.65 |
| AAGGAAAAACCATTCGCACACACACCGAATATATAA [CACACA_site8403] | 8.13 ± 0.63 |
| TATATCAAATTCTAAACATGCACAAAAAACTTATAA [TGCATGCA_site510] | 8.66 ± 0.64 |
| TATTTATATAGACACACACACATATATTTATATTTT [CACACA_site7240] | 7.85 ± 0.35 |
| ACTTAAATAATACATACACACATGTACATACAGAAA [CACACA_site1595] | 8.24 ± 0.38 |

| Sequence | gcPBM binding intensity (ln) |
| --- | --- |
| TTTACATTTAATAAAAGTACTTATTTCATATACATA [XGTACX_site659] | 7.69 ± 0.28 |
| TAATTCTTTATAATAACACACATTCATATACAATAA [CACACA_site2499] | 7.71 ± 0.49 |
| GGTATTACCTGTTTGTTATGTAGATGTTGCTAGGAT [GTGCAC_negctrl_site736] | 8.14 ± 0.63 |
| ATACCAATAATATACATACACACATAAAGGTTTATA [CACACA_site314] | 7.77 ± 0.51 |
| AAGAAAAACTAAAGAGTTCTGTTCATATCTCTTTGG [TGCATGCA_negctrl_site549] | 7 ± 0.75 |
| AATTTAAAGTTTTTTTTTTTTTTTTTTTTTTTTTTG [CACACA_negctrl_site1082] | 7.39 ± 0.31 |
| TGTATTATAATATTATGTACTTATAAATTTTATATT [XGTACX_site6432] | 7.69 ± 0.42 |
| ATATTATTATAAAGTGGTACAATAAATGGTATTATA [XGTACX_site391] | 8.02 ± 0.48 |
| TGGGTGGTAAAAATGTGTACATAAAAAAATAATGTT [XGTACX_site2235] | 8.695 ± 0.078 |
| TCTCACATTCTTATGGGTACACATGAGAAATTATAA [XGTACX_site6799] | 7.99 ± 0.26 |
| AATATACACCCGTGTACACAAATATTTACAAAACGT [CACACA_site4786] | 8.66 ± 0.58 |
| AAAAGGAATGAAAATTCACACAACTATAAATACATA [CACACA_site5337] | 7.49 ± 0.66 |
| GTTACACCAACAAACACACACACACCCACCCACAAA [CACACA_site2427] | 8.41 ± 0.71 |
| TTAGAATTTAGAGAAGTGCATATTAAGTTACGAATT [GTGCAC_site9861] | 9.71 ± 0.12 |
| AAAAAAAATATATATATTAAAGTTTTAATTTTTATA [CACACA_negctrl_site497] | 7.21 ± 0.41 |
| ATTATATATATATATAGTACTTTTTTTTTTTTTTTT [XGTACX_site8801] | 8.32 ± 0.4 |
| TTATTGGTTATATAAAGTACATTTGAAATATAATTG [XGTACX_site6553] | 7.67 ± 0.29 |
| ATAATAATTTTATGCACACAGAAAAATACAAGGTTA [CACACA_site3510] | 9.53 ± 0.26 |
| TTTTCTTGGTATATGATTTATCCTAAATAAGTAAAT [CACACA_negctrl_site294] | 7.57 ± 0.55 |
| TTGCCTGACTTGTTCACACATATTTATGATATACAT [CACACA_site5783] | 7.8 ± 0.82 |
| TCAAGTTTATATTAACTATTTATGAAAAAAAAAAGA [CACACA_negctrl_site902] | 7.67 ± 0.29 |
| ATATATTACAAATGGAGTACTAAAAATATTCTATAT [XGTACX_site6669] | 8.02 ± 0.38 |

| Sequence | gcPBM binding intensity (ln) |
| --- | --- |
| CTAAAAATTTTAATTGCACACCACGTTGGACTATTT [CACACA_site1489] | 9.67 ± 0.057 |
| TTACACTAAATATGTTCACACATTTTTTCCATCATA [CACACA_site4647] | 7.96 ± 0.66 |
| TATATATATGGGTTTACACACAATAATGAATTAAAA [CACACA_site915] | 8.05 ± 0.8 |
| CCCATGCATTTTTGCACACACATATATTTATAAATA [CACACA_site6785] | 9.75 ± 0.17 |
| CCCACAGACGGACACACACACACATATATATATATA [CACACA_site4352] | 9.3 ± 0.4 |
| ATAAAAATGGATGAATATAAAAAAAAAAAAATATAT [CACACA_negctrl_site182] | 7.74 ± 0.59 |
| GAATATATAAGAACAAATATGGCTTAGAAAAAAAAA [TGCATGCA_negctrl_site451] | 7.53 ± 0.88 |
| TACAAAAGTTAAACATGTACTTAATTATATGTTTTT [XGTACX_site2852] | 7.37 ± 0.44 |
| CATATATATAAATACACACACACACCCCTTATAATT [CACACA_site4064] | 8.31 ± 0.26 |
| TAGGAGCCGAAACACACACACAAAAAAAAAAAAAAA [CACACA_site1731] | 8.06 ± 0.71 |
| TTTTACAATAACAATACACACTATAATATATATATA [CACACA_site4893] | 8.795 ± 0.078 |
| AAAAGAATTTGAAGTCGTACAATATCTATTATATGA [XGTACX_site8275] | 7.61 ± 0.37 |
| AAAAAAAAATAAAAATGTACATATATAATATTATAT [XGTACX_site71] | 7.79 ± 0.49 |
| ATATAATATACTTATTGTACTTATTTAAAATACTAA [XGTACX_site4266] | 7.88 ± 0.22 |
| AAAAAATGGCTAGTTTGTACACAAAAGTTATTGCAT [XGTACX_site5381] | 8.28 ± 0.3 |
| AAGATAAAATTATGCACACATACGAATAATTTTAAA [CACACA_site1705] | 9.79 ± 0.39 |
| TTTCTCAATTCTTAGAGTACATAAATAAAAAAAAAA [XGTACX_site7639] | 7.91 ± 0.42 |
| TTAACTTTTATATAGTGTACAAATAAATGCATACAG [XGTACX_site5958] | 8.29 ± 0.43 |
| TTATTATTTAACATGTGGACACAAAAATTTAAGGGT [XGTACX_site4638] | 8.24 ± 0.51 |
| AAAAAACAAAAACACACACACACATATATATATATA [CACACA_site3654] | 9.46 ± 0.13 |
| ATCACTAACATGTGTTGTACATAAAATTTGTTTGTT [XGTACX_site2207] | 7.63 ± 0.47 |
| TGAACACAGACAAATACACACAAAAAAAATAAATAA [CACACA_site4298] | 7.79 ± 0.46 |

| Sequence | gcPBM binding intensity (ln) |
| --- | --- |
| TATTATGTATAAAGAAGTACTTTTTTTTTTTTTTTC [XGTACX_site201] | 7.43 ± 0.35 |
| TGCAAATTTAACAAAAAAAAAAAAAAAAAAAAAAAA [GTGCAC_negctrl_site64] | 8.14 ± 0.9 |
| TCTACTACTTAATGGAGTACTAGCTTCATAATATTA [XGTACX_site7030] | 7.46 ± 0.47 |
| GATTATTTAAAATATACATGCGCGCACATATGCATA [TGCATGCA_site630] | 8.21 ± 0.4 |
| TGCATTTTCCTATTTGCATGCAATTAAAATATAGAA [TGCATGCA_site862] | 8.12 ± 0.47 |
| AACATATATACAGTAACACACACAAAAAAATATGAA [CACACA_site9323] | 8.03 ± 0.54 |
| ATGTTTTAATGAGGTTTGCACTATATTTTAATGAAC | 9.22 ± 0.32 |
| AAGAAAATAAAATAAAAAAAAAAATAAAAAAAATAA [TGCATGCA_negctrl_site516] | 7.3 ± 0.52 |
| TTTTAAAGCATATCATATAAAGAACATGACATAGGA [CACACA_negctrl_site630] | 7.69 ± 0.52 |
| AACATTTTTAAATATATAAAAATATATATATATATA [XGTACX_negctrl_site551] | 9.37 ± 0.26 |
| TTATATTTATGATACACACACGTATATTCACATACA [CACACA_site6354] | 7.88 ± 0.57 |
| GTATGTTTAATTTTAGTGCAATTATAAATATTTTAA [GTGCAC_site9531] | 10.2 ± 0.3 |
| TTGCCATTAATTTATACACACACATTTTAATTTTTT [CACACA_site8150] | 8.02 ± 0.5 |
| TTGTCATTTATAAAATGTACGTGTGTATATATTTAA [XGTACX_site5000] | 7.85 ± 0.42 |
| TCAATAGTTACTAGTACATGCAAAAATAAACCTATA [TGCATGCA_site85] | 7.88 ± 0.64 |
| CAAATATATATGTTCACACATATAATTATTGTGAAA [CACACA_site4190] | 7.43 ± 0.42 |
| CTATTAAAAAAATTATGTACACAACGTCTCTATATA [XGTACX_site4813] | 7.76 ± 0.4 |
| TACATTTTTATTTTTACACACATATATATATATATA [CACACA_site1021] | 9.28 ± 0.33 |
| AAGTATTATTATAAGACACACATGTATATAAGTATA [CACACA_site1479] | 7.67 ± 0.5 |
| TTAAGTATTTTACGTACACACTTATAAATGTACAGG [CACACA_site6012] | 7.92 ± 0.3 |
| TATAATATATTTATATGTACTTATTTATTTATATAT [XGTACX_site6519] | 7.59 ± 0.3 |
| GAGTTTATTCTTTTTATACACACCTTATTTGATTAA [CACACA_site735] | 7.97 ± 0.73 |
